# From the supplement of paper PMC8728848
# Some of the results follow.
# B1: Alpha-agglutinin (Saccharomyces cerevisiae) (protein)
# chain: MFTFLKIILWLFSLALASAININDITFSNLEITPLTANKQPDQGWTATFDFSIADASSIREGDEFTLSMPHVYRIKLLNSSQTATISLADGTEAFKCYVSQQAAYLYENTTFTCTAQNDLSSYNTIDGSITFSLNFSDGGSSYEYELENAKFFKSGPMLVKLGNQMSDVVNFDPAAFTENVFHSGRSTGYGSFESYHLGMYCPNGYFLGGTEKIDYDSSNNNVDLDCSSVQVYSSNDFNDWWFPQSYNDTNADVTCFGSNLWITLDEKLYDGEMLWVNALQSLPANVNTIDHALEFQYTCLDTIANTTYATQFSTTREFIVYQGR
# What was measured:
# Assay in all cases: glycan array binding signal (z-score within array); higher = stronger binding
# Conditions in all cases: glycan notation: IUPAC condensed, linker removed
# [1] = biological target: Man(a1-3)[Man(a1-6)]Man(b1-4)GlcNAc(b1-4)GlcNAc
# In short: (§1)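 The binding signal is a Z-score computed within each array. Data were drawn from 3228 arrays in the Consortium for Functional Glycomics database, restricted to those with a known protein sequence. Scores were averaged over arrays of the same protein sequence at different concentrations or buffers, and over linkers, and negative values can be taken as non-binding.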
# Man(b1-4)GlcNAc = biological target: Man(b1-4)GlcNAc
# In short: as §1
# Neu5Ac(a2-3)Gal = biological target: Neu5Ac(a2-3)Gal
# In short: as §1
# [2] = biological target: Neu5Ac(a2-3)Gal(b1-3)GalNAc
# In short: as §1
# [3] = biological target: Neu5Ac(a2-3)Gal(b1-3)GalNAc(b1-3)Gal(a1-4)Gal(b1-4)Glc
# In short: as §1
# [4] = biological target: Neu5Ac(a2-3)Gal(b1-3)GalNAc(b1-4)[Neu5Ac(a2-3)]Gal(b1-4)Glc
# In short: as §1
# [5] = biological target: Neu5Ac(a2-3)Gal(b1-3)GalNAc6S
# In short: as §1
# [6] = biological target: Neu5Ac(a2-3)Gal(b1-3)GlcNAc
# In short: as §1
# [7] = biological target: Neu5Ac(a2-3)Gal(b1-3)GlcNAc(b1-3)Gal(b1-4)GlcNAc
# In short: as §1
# [8] = biological target: Neu5Ac(a2-3)Gal(b1-3)GlcNAc6S
# In short: as §1
# [9] = biological target: Neu5Ac(a2-3)Gal(b1-3)[Fuc(a1-4)]GlcNAc
# In short: as §1
# [10] = biological target: Neu5Ac(a2-3)Gal(b1-3)[Fuc(a1-4)]GlcNAc(b1-3)Gal(b1-4)[Fuc(a1-3)]GlcNAc
# In short: as §1
# [11] = biological target: Neu5Ac(a2-3)Gal(b1-3)[Neu5Ac(a2-3)Gal(b1-4)]GlcNAc
# In short: as §1
# [12] = biological target: Neu5Ac(a2-3)Gal(b1-3)[Neu5Ac(a2-6)]GalNAc
# In short: as §1
# Neu5Ac(a2-3)Gal(b1-4)Glc = biological target: Neu5Ac(a2-3)Gal(b1-4)Glc
# In short: as §1
# [13] = biological target: Neu5Ac(a2-3)Gal(b1-4)GlcNAc
# In short: as §1
# [14] = biological target: Neu5Ac(a2-3)Gal(b1-4)GlcNAc(b1-3)Gal(b1-4)GlcNAc
# In short: as §1
# [15] = biological target: Neu5Ac(a2-3)Gal(b1-4)GlcNAc(b1-3)Gal(b1-4)GlcNAc(b1-3)Gal(b1-4)GlcNAc
# In short: as §1
# [16] = biological target: Neu5Ac(a2-3)Gal(b1-4)GlcNAc(b1-3)Gal(b1-4)[Fuc(a1-3)]GlcNAc
# In short: as §1
# [17] = biological target: Neu5Ac(a2-3)Gal(b1-4)GlcNAc6S
# In short: as §1
# [18] = biological target: Neu5Ac(a2-3)Gal(b1-4)[Fuc(a1-3)]GlcNAc
# In short: as §1
# [19] = biological target: Neu5Ac(a2-3)Gal(b1-4)[Fuc(a1-3)]GlcNAc(b1-3)Gal
# In short: as §1
# [20] = biological target: Neu5Ac(a2-3)Gal(b1-4)[Fuc(a1-3)]GlcNAc(b1-3)Gal(b1-4)GlcNAc
# In short: as §1
# [21] = biological target: Neu5Ac(a2-3)Gal(b1-4)[Fuc(a1-3)]GlcNAc(b1-3)Gal(b1-4)[Fuc(a1-3)]GlcNAc(b1-3)Gal(b1-4)[Fuc(a1-3)]GlcNAc
# In short: as §1
# [22] = biological target: Neu5Ac(a2-3)Gal(b1-4)[Fuc(a1-3)]GlcNAc6S
# In short: as §1
# [23] = biological target: Neu5Ac(a2-3)Gal6S(b1-4)GlcNAc
# In short: as §1
# [24] = biological target: Neu5Ac(a2-3)Gal6S(b1-4)[Fuc(a1-3)]GlcNAc
# In short: as §1
# Neu5Ac(a2-3)GalNAc = biological target: Neu5Ac(a2-3)GalNAc
# In short: as §1
# [25] = biological target: Neu5Ac(a2-3)GalNAc(b1-4)GlcNAc
# In short: as §1
# [26] = biological target: Neu5Ac(a2-3)[GalNAc(b1-4)]Gal(b1-4)Glc
# In short: as §1
# [27] = biological target: Neu5Ac(a2-3)[GalNAc(b1-4)]Gal(b1-4)GlcNAc
# In short: as §1
# [28] = biological target: Neu5Ac(a2-3)[Neu5Ac(a2-6)]GalNAc
# In short: as §1
# [29] = biological target: Neu5Ac(a2-6)Gal(b1-4)GlcNAc
# In short: as §1
# [30] = biological target: Neu5Ac(a2-6)Gal(b1-4)GlcNAc(b1-2)Man(a1-3)[Neu5Ac(a2-6)Gal(b1-4)GlcNAc(b1-2)Man(a1-6)]Man(b1-4)GlcNAc(b1-4)GlcNAc
# In short: as §1
# [31] = biological target: Neu5Ac(a2-6)Gal(b1-4)GlcNAc(b1-3)Gal(b1-4)GlcNAc
# In short: as §1
# [32] = biological target: Neu5Ac(a2-6)Gal(b1-4)GlcNAc(b1-3)Gal(b1-4)[Fuc(a1-3)]GlcNAc(b1-3)Gal(b1-4)[Fuc(a1-3)]GlcNAc
# In short: as §1
# [33] = biological target: Neu5Ac(a2-6)Gal(b1-4)GlcNAc6S
# In short: as §1
# Neu5Ac(a2-6)GalNAc = biological target: Neu5Ac(a2-6)GalNAc
# In short: as §1
# [34] = biological target: Neu5Ac(a2-6)GalNAc(b1-4)GlcNAc
# In short: as §1
# Neu5Ac(a2-8)Neu5Ac = biological target: Neu5Ac(a2-8)Neu5Ac
# In short: as §1
# [35] = biological target: Neu5Ac(a2-8)Neu5Ac(a2-3)Gal(b1-4)Glc
# In short: as §1
# [36] = biological target: Neu5Ac(a2-8)Neu5Ac(a2-3)[GalNAc(b1-4)]Gal(b1-4)Glc
# In short: as §1
# [37] = biological target: Neu5Ac(a2-8)Neu5Ac(a2-8)Neu5Ac
# In short: as §1
# [38] = biological target: Neu5Ac(a2-8)Neu5Ac(a2-8)Neu5Ac(a2-3)Gal(b1-4)Glc
# In short: as §1
# [39] = biological target: Neu5Ac(a2-8)Neu5Ac(a2-8)Neu5Ac(a2-3)[GalNAc(b1-4)]Gal(b1-4)Glc
# In short: as §1
binder,measurement,setting,value
B1,glycan array binding signal (z-score),[1],-0.158
same,glycan array binding signal (z-score),Man(b1-4)GlcNAc,-0.237
same,glycan array binding signal (z-score),Neu5Ac(a2-3)Gal,-0.263
same,glycan array binding signal (z-score),[2],-0.256
same,glycan array binding signal (z-score),[3],-0.262
same,glycan array binding signal (z-score),[4],-0.261
same,glycan array binding signal (z-score),[5],-0.159
same,glycan array binding signal (z-score),[6],-0.266
same,glycan array binding signal (z-score),[7],-0.259
same,glycan array binding signal (z-score),[8],-0.179
same,glycan array binding signal (z-score),[9],-0.214
same,glycan array binding signal (z-score),[10],-0.231
same,glycan array binding signal (z-score),[11],-0.231
same,glycan array binding signal (z-score),[12],-0.251
same,glycan array binding signal (z-score),Neu5Ac(a2-3)Gal(b1-4)Glc,-0.25
same,glycan array binding signal (z-score),[13],-0.264
same,glycan array binding signal (z-score),[14],-0.265
same,glycan array binding signal (z-score),[15],-0.261
same,glycan array binding signal (z-score),[16],-0.262
same,glycan array binding signal (z-score),[17],-0.253
same,glycan array binding signal (z-score),[18],-0.258
same,glycan array binding signal (z-score),[19],-0.243
same,glycan array binding signal (z-score),[20],-0.162
same,glycan array binding signal (z-score),[21],-0.131
same,glycan array binding signal (z-score),[22],-0.252
same,glycan array binding signal (z-score),[23],-0.225
same,glycan array binding signal (z-score),[24],-0.255
same,glycan array binding signal (z-score),Neu5Ac(a2-3)GalNAc,-0.213
same,glycan array binding signal (z-score),[25],-0.244
same,glycan array binding signal (z-score),[26],-0.258
same,glycan array binding signal (z-score),[27],-0.255
same,glycan array binding signal (z-score),[28],-0.272
same,glycan array binding signal (z-score),[29],-0.259
same,glycan array binding signal (z-score),[30],-0.206
same,glycan array binding signal (z-score),[31],-0.248
same,glycan array binding signal (z-score),[32],-0.258
same,glycan array binding signal (z-score),[33],-0.23
same,glycan array binding signal (z-score),Neu5Ac(a2-6)GalNAc,-0.193
same,glycan array binding signal (z-score),[34],-0.229
same,glycan array binding signal (z-score),Neu5Ac(a2-8)Neu5Ac,-0.116
same,glycan array binding signal (z-score),[35],-0.25
same,glycan array binding signal (z-score),[36],-0.105
same,glycan array binding signal (z-score),[37],-0.261
same,glycan array binding signal (z-score),[38],-0.253
same,glycan array binding signal (z-score),[39],-0.254
